Hit rate of the full screen: of about 310,000 compounds, about 18,000 (5.8%) were called active. This list was built around the results that the source calls inconclusive (neither active nor inactive); the mix of calls is not that of the screen. Calls follow the shape of the dose curve; as a rule, active = well fitted inhibition curve with a large enough effect; inconclusive = small, poorly fitted or top-dose-only effect, or another doubt; inactive = no such curve, though single readings can be large or run the other way. No potency is given beside an inconclusive call; the fits are too rough.
Experiment: Primary qHTS for delayed death inhibitors of the malarial parasite plastid, 48 hour incubation
Settings: P. falciparum luciferase growth in erythrocytes; series mostly up to 28.7 µM; activity change, negative = inhibition: at the top concentration
Summary of the method: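 Cell-based growth assay: transgenic P. falciparum expressing firefly luciferase, cultured in red cells within RPMI 1640 containing 0.5% w/v Albumax, 24 mM bicarbonate and gentamycin. A drop in luciferase activity indicates inhibition.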
With `COc1ccc(CNc2ncnc3cc(OC)c(OC)cc23)cc1OC` the Potency was inconclusive [inhibitor, partial curve, poor fit]. With `CC(C)c1nc(SCC(=O)NCC2CCCO2)c2c(=O)n(C)c(=O)n(C)c2n1` (stereo not drawn) the Potency was inconclusive [inhibitor, single point]. With `COc1cccc(C2(C)NC(=O)N(CC(=O)c3cc(C)n(C4CC4)c3C)C2=O)c1` (stereo not drawn) the Potency was inconclusive [inhibitor, partial curve, poor fit]. With `COc1ccc(C(NC(=O)C(C)C)c2c(O)ccc3ccccc23)cc1OC` (stereo not drawn) the Potency was inconclusive [inhibitor, single point]. In the case of `CC(C)(C)NC(=S)Nc1cccc(C(F)(F)F)c1`, the Potency is reported as inconclusive [inhibitor, single point]. For `Cc1cccc(CN2CCC(CNC(=O)Nc3ccc(F)c(Cl)c3)CC2)c1`, the Potency was active: 10.4 µM. In the case of `CC(NC(=O)Cc1cccs1)C(c1cccs1)N1CCN(c2ccccc2F)CC1` (stereo not drawn), the Potency is reported as inconclusive [inhibitor, partial curve]. In the case of `O=C1CC(c2ccccc2)Sc2nc3ccccc3n21` (stereo not drawn), the “activity change, negative = inhibition” value is reported as inactive: 340%. For `CC(C)c1cc(C(=O)N2CCCC(N3CCN(c4ccc(F)cc4)CC3)C2)no1` (stereo not drawn), the Potency was inconclusive [inhibitor, single point]. For `C#CCOCCOCCOCCNc1nc(N2CCN(C(=O)CCCCCCCCCCNC(=O)[C@H](CCCCN)n3cc(C)nn3)CC2)nc(N2CCN(C(=O)CCCCCCCCCCNC(=O)[C@H](CO)n3cc(CCCSC)nn3)CC2)n1`, the Potency was active: 0.586 µM. In the case of `CC1CCCC(C)N1C(=O)COC(=O)C12CC3CC(CC(Cl)(C3)C1)C2` (stereo not drawn), the Potency is reported as inconclusive [inhibitor, partial curve, poor fit]. For `O=C(NCc1ccccc1)N1CCC(n2cnc3cc(F)ccc32)CC1`, the Potency was inconclusive [inhibitor, partial curve, poor fit]. For `COC(=O)C1CCN(c2cc(=O)n(C3CCCCC3)c(=O)[nH]2)CC1`, the Potency was inconclusive [inhibitor, full curve]. With `C/C1=C2/[N-]C(C(CC(N)=O)[C@@]2(C)CCC(=O)NCC(C)OP(=O)([O-])O[C@H]2[C@@H](O)[C@@H](n3cnc4cc(C)c(C)cc43)O[C@@H]2CO)[C@]2(C)N=C(/C(C)=C3N=C(/C=C4N=C1C(CCC(N)=O)C\4(C)C)[C@@H](CCC(N)=O)[C@]\3(C)CC(N)=O)[C@@H](CCC(N)=O)[C@]2(C)CC(N)=O.CC(=O)O.[Co]` (stereo partly drawn) the Potency was active: 0.849 µM. With `COc1ccc(NC(=O)COC(=O)c2c(F)cccc2Cl)cc1OC` the “activity change, negative = inhibition” value was inactive: 128%. With `COc1cccc(NC(=O)CCC2CCN(C(=O)c3cccc(NC(C)=O)c3)CC2)c1` the “activity change, negative = inhibition” value was inactive: -29.4%. In the case of `COc1cccc(CC(=O)Nc2cc(S(=O)(=O)N3CCCCC3)ccc2C)c1`, the Potency is reported as inconclusive [inhibitor, partial curve]. With `Cc1ccc(NS(=O)(=O)c2ccc(OCC(N)=O)cc2)cc1` the activity change, negative = inhibition was inactive: -30.2% [at 5.75 µM]. For `CCCCn1c(SCC(=O)NC2CCS(=O)(=O)C2)nnc1-c1ccc(OC)cc1` (stereo not drawn), the Potency was inconclusive [inhibitor, full curve, poor fit]. For `Clc1ccc(Nc2nnc(Cc3ccncc3)c3ccccc23)cc1`, the Potency was active: 13.5 µM. For `CCOC(=O)c1c(C)[nH]c(C(=O)N2CCCC(C(=O)c3ccccc3OC)C2)c1C` (stereo not drawn), the Potency was inconclusive [inhibitor, full curve, poor fit]. In the case of `CS(=O)(=O)c1ccc(Cl)c(NC(=O)C2CCN(S(=O)(=O)c3cccs3)CC2)c1`, the Potency is reported as inconclusive [inhibitor, single point]. With `C=CC(=O)O` the “activity change, negative = inhibition” value was inactive: -3.51%. With `Cc1ccc(CNC(=S)NC2CCC(C(C)(C)C)CC2)cc1` (stereo not drawn) the Potency was active: 9.28 µM. With `COc1ccc(-n2nnc3c(=O)n(Cc4cc(C)ccc4C)cnc32)cc1` the “activity change, negative = inhibition” value was inactive: -18.7%. For `CC(C)(C)OC(=O)CNC(=O)c1[nH]cnc1C(=O)Nc1ccc(CNC(=O)OC(C)(C)C)cc1`, the Potency was active: 13.1 µM. With `CC(NC(=O)c1cc(S(=O)(=O)N2CCOCC2)cn1C)c1ccccc1` (stereo not drawn) the “activity change, negative = inhibition” value was inactive: 14.7%. In the case of `Cc1nc(N2CCN(C)CC2)c2cc(-c3ccccc3)sc2n1`, the Potency is reported as inconclusive [inhibitor, single point]. In the case of `COc1ccc(-n2nc(C(=O)NCC(=O)NCCC3=CCCCC3)c3ccccc3c2=O)c(OC)c1`, the Potency is reported as inconclusive [inhibitor, single point]. With `COc1ccc(/C(N)=N/OC(=O)c2ccc3c(c2)OCO3)cc1OC` the Potency was inconclusive [inhibitor, single point]. For `O=C(NCc1ccco1)C(c1ccncc1)N(CCC1=CCCCC1)C(=O)Cn1nnc2ccccc21` (stereo not drawn), the Potency was inconclusive [inhibitor, partial curve]. For `COc1ccccc1NC(=O)c1ccc(Cl)c(S(=O)(=O)NCc2ccco2)c1`, the Potency was inconclusive [inhibitor, single point]. For `Cn1nnc2cc(C(=O)N3CCN(c4ccccn4)CC3)ccc21`, the “activity change, negative = inhibition” value was inactive: 19%. For `CC(c1nc2ccccc2n1Cc1ccccc1)N1CCCCC1` (stereo not drawn), the Potency was inconclusive [inhibitor, partial curve]. With `CCN1CCN(CC(=O)Nc2c(C(=O)OC)[nH]c3cccc(Cl)c23)CC1` the Potency was inconclusive [inhibitor, partial curve, poor fit]. For `CC12CC3CC(C)(C1)CC(C(=O)NC(=S)N1CCCCC1)(C3)C2`, the Potency was inconclusive [inhibitor, single point]. For `Cc1ccc(-n2c(Cc3cccn3C)nnc2SCC(=O)NC2CCCCC2)cc1`, the Potency was inconclusive [inhibitor, partial curve]. For `COCCn1c(C)cc(C(=O)COC(=O)C2CC(=O)N(CCc3ccc(OC)c(OC)c3)C2)c1C` (stereo not drawn), the “activity change, negative = inhibition” value was inactive: -15.8%. For `COC(=O)CCCC1=CC2=CC(=O)C(C)(OC(=O)c3cccs3)C(=O)C2=CN1CC1CC1` (stereo not drawn), the Potency was inconclusive [inhibitor, single point]. With `COc1ccc(-c2cc(C(F)(F)F)nc(SCCC(=O)N3CCCC3)n2)cc1` the Potency was inconclusive [inhibitor, partial curve, poor fit]. With `O=C(CSc1ncn[nH]1)NCCC(c1ccccc1)c1ccccc1` the Potency was inconclusive [inhibitor, single point]. For `Cc1ccc(C)c(N2CCN(C(=O)C34CC5CC(C3)CC(n3nnc(C)n3)(C5)C4)CC2)c1`, the Potency was active: 10.4 µM. With `Cc1cc(-c2nnc(CCC(=O)N3CCN(Cc4cccc(F)c4)CC3)o2)c(C)o1` the Potency was inconclusive [inhibitor, single point]. For `COc1cc(CC(=O)OCC(=O)NCC(C)C)cc(OC)c1OC`, the Potency was inconclusive [inhibitor, partial curve, poor fit]. For `COc1ccc2c(C)c(CC(=O)N3CCN(C(=O)C4COc5ccccc5O4)CC3)c(=O)oc2c1C` (stereo not drawn), the Potency was inconclusive [inhibitor, partial curve, poor fit]. In the case of `COc1cc(/C=C/C(=O)OCC(=O)N2CCc3ccccc3C2)ccc1O`, the “activity change, negative = inhibition” value is reported as inactive: 48.8%. In the case of `Cc1ccccc1NCc1ccccc1O`, the Potency is reported as inconclusive [inhibitor, full curve, poor fit]. In the case of `Cc1ccccc1N1C(=O)CC(Nc2ccc3c(c2)OCO3)C1=O` (stereo not drawn), the “activity change, negative = inhibition” value is reported as inactive: 18.5%. For `Cc1nc(N2CCN(C(=O)c3ccco3)CC2)c2c3c(sc2n1)CC(C)CC3` (stereo not drawn), the Potency was inconclusive [inhibitor, partial curve]. For `CC(=O)c1ccc(NC(=O)c2ccc3c(=O)n4c(nc3c2)CCCCC4)cc1`, the Potency was inconclusive [inhibitor, partial curve, poor fit]. With `COc1ccc(C2CC(=O)N(CC(=O)NCC3CCCO3)c3ccccc3S2)cc1OC` (stereo not drawn) the Potency was inconclusive [inhibitor, full curve, poor fit]. In the case of `COc1ccc(Nc2oc(-c3ccco3)nc2S(=O)(=O)c2ccc(F)cc2)cc1`, the Potency is reported as inconclusive [inhibitor, single point]. With `COc1ccc([C@H]2CC(=O)C=C(/C=C/Cc3ccccc3)C2)cc1` the Potency was inconclusive [inhibitor, full curve, poor fit]. For `COC(=O)[C@]1(CC(C)C)N[C@H](c2ccc(-c3cccc(Cl)c3)cc2)[C@@H]2C(=O)N(C)C(=O)[C@@H]21`, the Potency was active: 2.62 µM. In the case of `O=C(CCc1ccccc1)NNC(=S)NC(=O)c1ccccc1`, the Potency is reported as inconclusive [inhibitor, single point]. In the case of `N#CCc1ccc(NC(=O)c2ccc(CN3CCc4ccccc4C3)cc2)cc1`, the Potency is reported as inconclusive [inhibitor, partial curve, poor fit]. For `COc1cccc(C(=O)NC2CCN(CC(=O)NCc3ccccc3F)CC2)c1`, the Potency was inconclusive [inhibitor, partial curve, poor fit]. For `CCCNC(=O)NC1CCCc2ccccc21` (stereo not drawn), the “activity change, negative = inhibition” value was inactive: 15.2%. For `Cc1ccc(C(=O)C2=C(O)C(=O)N(Cc3ccco3)C2c2ccc(N(C)C)cc2)o1` (stereo not drawn), the Potency was inconclusive [inhibitor, single point]. For `CCOc1ccccc1CNC(=O)c1cc2oc3ccccc3c2n1C`, the Potency was inconclusive [inhibitor, single point]. For `C#Cc1ccc([C@@H]2C=C(C(=O)O)O[C@H](OCc3ccc(CO)cc3)C2)cc1`, the “activity change, negative = inhibition” value was inactive: 30.1%. In the case of `CC(C)CCN1CCC(C)(NC(=O)c2ccccc2)C1=O` (stereo not drawn), the “activity change, negative = inhibition” value is reported as inactive: 0%. With `CCOC(=O)C1=C(c2ccccc2)NC(SC)=C(C#N)C1c1ccco1` (stereo not drawn) the Potency was inconclusive [inhibitor, full curve].
% is scaled to controls: 0 for no effect and ±100 for the full control effect; potency is read from the fitted curve at half-maximal effect; tags tell the direction and shape of the fitted curve.
